The labels stand for the following.
B1: PhoQ; a variant is named by its letters at X, in order, P23837 (parent)
chain: MKKLLRLFFPLSLRVRFLLATAAVVLVLSLAYGMVALIGYSVSFDKTTFRLLRGESNLFYTLAKWENNKLHVELPENIDKQSPTMTLIYDENGQLLWAQRDVPWLMKMIQPDWLKSNGFHEIEADVNDTSLLLSGDHSIQQQLQEVREDDDDAEMTHSVAVNVYPATSRMPKLTIVVVDTIPVELKSSYMVWSWFIYVLSANLLLVIPLLWVAAWWSLRPIEALAKEVRELEEHNRELLNPATTRELTSLVRNLNRLLKSERERYDKYRTTLTDLTHSLKTPLXXLQXXLRSLRSEKMSVSDAEPVMLEQISRISQQIGYYLHRASMRGGTLLSRELHPVAPLLDNLTSALNKVYQRKGVNISLDISPEISFVGEQNDFVEVMGNVLDNACKYCLEFVEISARQTDEHLYIVVEDDGPGIPLSKREVIFDRGQRVDTLRPGQGVGLAVAREITEQYEGKIVAGESMLGGARMEVIFGRQHSAPKDE

The list shows a part of the results. Some results are limits rather than exact numbers.

Enrichment ratio data for 195 variants are collected here from a collection of fitness landscapes (doi:10.1126/science.1257360).

The test covers variants of B1. Put plainly: enrichment ratio after two sorts for PhoP signalling (ratio (wild type AVST 3.29)); higher = more functional. The note with it: with PhoP (E. coli).
QYKY: the enrichment ratio is at most 0.25.
In the case of IQRY, the enrichment ratio was at most 0.25.
For MHHQ the value was at most 0.25.
Regarding DKDV, the enrichment ratio is at most 0.25.
Then RDTM, with at most 0.25.
Then AQTD, with at most 0.25.
Then VQNQ, with at most 0.25.
Regarding MTLS, the enrichment ratio was 2.25.
Consider SSLE, for which the enrichment ratio was found to be 12.
For RCQQ the value was at most 0.25; for YPQR, at most 0.25.
For GCQW the value was at most 0.25; for YFGC, at most 0.25.
For AHME the value was 12.2; for TVPD, at most 0.25.
With SFQQ, the enrichment ratio was at most 0.25.
Take IMDY: the enrichment ratio was at most 0.25.
Then RKRN, with at most 0.25; and GKSC, with at most 0.25.
QPMD: the enrichment ratio is at most 0.25.
For YYIK the value was at most 0.25; for GNKP, at most 0.25; for WPWG, at most 0.25.
Then ICAD, with at most 0.25; and NINP, with at most 0.25; and AIAE, with 7.09.
Then HWDK, with at most 0.25; and PFAP, with at most 0.25; and KKFI, with at most 0.25.
As for PMVQ, the enrichment ratio is at most 0.25.
For VFKL, the enrichment ratio is at most 0.25.
Then ERDY, with at most 0.25.
Take MAFS: the enrichment ratio is 1.27.
Then YLSC, with 0.299.
For VSMD the value was at most 0.25; for LREI, at most 0.25.
For GLRK the value was at most 0.25.
Consider NTDQ, for which the enrichment ratio was at most 0.25.
For LNQN the value was at most 0.25; for KFTN, at most 0.25; for EFRT, at most 0.25.
For IQVS the value was at most 0.25; for HNKL, at most 0.25.
As for KVVY, the enrichment ratio is at most 0.25.
As to ERPG, the enrichment ratio is at most 0.25.
Then VEWG, with 18.1.
For ALTR the value was at most 0.25.
Then WYPP, with at most 0.25.
Consider MNVQ, for which the enrichment ratio was at most 0.25.
Then CSLC, with 9.89; and QGNE, with at most 0.25; and MQRT, with at most 0.25.
Then DCPP, with at most 0.25.
For TWHK the value was at most 0.25; for KYCI, at most 0.25.
Take QSAA: the enrichment ratio is at most 0.25.
INGF: the enrichment ratio was at most 0.25.
Then RYAI, with at most 0.25; and DMVD, with at most 0.25; and INYG, with at most 0.25.
Then GRSA, with at most 0.25; and VADN, with at most 0.25; and MAYW, with at most 0.25.
Then NLKH, with at most 0.25; and IGQD, with at most 0.25.
Turning to REID, the enrichment ratio was at most 0.25.
Consider IDGT, for which the enrichment ratio was at most 0.25.
Then VLFL, with at most 0.25; and TRHL, with at most 0.25.
Then KKNT, with at most 0.25.
Then HDYQ, with at most 0.25; and TIET, with at most 0.25.
On to WSPT, for which the enrichment ratio is at most 0.25.
On to MKTM, for which the enrichment ratio is at most 0.25.
For VRKG the value was at most 0.25; for NPEV, at most 0.25; for VYML, at most 0.25.
Take WRAT: the enrichment ratio is at most 0.25.
For NCGS the value was at most 0.25.
For LQAN the value was at most 0.25; for DLHF, at most 0.25; for ETIN, at most 0.25.
As to LDLK, the enrichment ratio was at most 0.25.
Then VWPK, with at most 0.25.
Then YTSS, with at most 0.25; and ICHE, with at most 0.25.
For QIVE the value was at most 0.25; for KYAD, at most 0.25; for ANTR, at most 0.25.
For PCTS, the enrichment ratio is at most 0.25.
For DPSA the value was at most 0.25; for WRNH, at most 0.25.
Then NQNT, with at most 0.25.
For GWSM the value was at most 0.25; for VYSG, at most 0.25.
Take DFNM: the enrichment ratio is at most 0.25.
For EQRS the value was at most 0.25; for YVYM, at most 0.25.
Then EIEL, with at most 0.25.
For HKDP the value was at most 0.25.
For IVFN, the enrichment ratio was at most 0.25.
For KEVP the value was at most 0.25; for VPVY, at most 0.25; for RKNW, at most 0.25.
On to IHQH, for which the enrichment ratio is at most 0.25.
As to NLYS, the enrichment ratio was at most 0.25.
Then QHPM, with at most 0.25.
For QYMV the value was at most 0.25.
Then QIIK, with at most 0.25; and PARM, with at most 0.25; and FCCP, with at most 0.25.
Regarding REIT, the enrichment ratio is at most 0.25.
Then EDPN, with at most 0.25; and LCCS, with at most 0.25.
For QYHI the value was 0.38; for LRSF, at most 0.25.
Then QISM, with at most 0.25; and GASW, with at most 0.25.
On to KGYP, for which the enrichment ratio was at most 0.25.
For DCLP the value was at most 0.25; for PWGH, at most 0.25; for IPFF, at most 0.25.
For the variant HMFY, the enrichment ratio was at most 0.25.
For AHIK the value was at most 0.25; for GEFD, at most 0.25.
Then PMCK, with at most 0.25.
On to MPAV, for which the enrichment ratio was at most 0.25.
Take MQTS: the enrichment ratio is at most 0.25.
On to VDSM, for which the enrichment ratio was at most 0.25.
Then LDQM, with at most 0.25; and DPSK, with at most 0.25; and HRDY, with at most 0.25.
Then ICEI, with at most 0.25; and KAQI, with at most 0.25.
For EMYE the value was at most 0.25.
For the variant FRCI, the enrichment ratio is at most 0.25.
Then RNLV, with at most 0.25.
Then DNYI, with at most 0.25; and FCHG, with at most 0.25; and EPPP, with at most 0.25.
Consider SNDK, for which the enrichment ratio is at most 0.25.
For the variant NKNK, the enrichment ratio is at most 0.25.
For HTFS the value was at most 0.25; for EEWF, at most 0.25; for TRMF, at most 0.25.
With GQGH, the enrichment ratio was at most 0.25.
Then DAIA, with at most 0.25.
For ACLQ the value was 11.6.
Turning to KECC, the enrichment ratio was at most 0.25.
For RYFI the value was at most 0.25; for SIYP, at most 0.25.
For FCWP the value was at most 0.25; for VADD, at most 0.25; for HDKS, at most 0.25.
For WRPK the value was at most 0.25; for VSPM, at most 0.25; for NVLL, at most 0.25.
LHAT: the enrichment ratio was at most 0.25.
For VEKG the value was at most 0.25.
FYMC: the enrichment ratio was at most 0.25.
For EGCA the value was at most 0.25; for FDHH, at most 0.25.
For QADS the value was 3.89.
For NDLN the value was at most 0.25.
With LKIS, the enrichment ratio is at most 0.25.
For ICHY the value was at most 0.25; for SRIH, at most 0.25; for TERP, at most 0.25.
Then ALPP, with at most 0.25; and RTVW, with at most 0.25; and FLCP, with at most 0.25.
With VHSM, the enrichment ratio was at most 0.25.
For HKCI the value was at most 0.25; for HIWR, at most 0.25.
With TKMA, the enrichment ratio turned out to be 20.5.
As to NPMT, the enrichment ratio is at most 0.25.
Then VWRS, with at most 0.25.
For WYLA, the enrichment ratio is at most 0.25.
For VQMF the value was at most 0.25.
As to KMCT, the enrichment ratio is at most 0.25.
For HWIC the value was at most 0.25; for PPRM, at most 0.25.
For the variant KEPA, the enrichment ratio was at most 0.25.
Then MGCD, with at most 0.25; and SIWH, with 6.19.
Then PTMW, with at most 0.25.
Regarding WYWW, the enrichment ratio is at most 0.25.
Regarding FTID, the enrichment ratio was at most 0.25.
Take FPMD: the enrichment ratio is at most 0.25.
Then KACM, with at most 0.25; and IDML, with at most 0.25; and LESR, with at most 0.25.
For SYKF the value was at most 0.25.
WGAQ: the enrichment ratio was at most 0.25.
For LGEM the value was at most 0.25.
